According to the supplement of paper PMC11417369:
The list shows a part of the results.

test system: PF3D7_0420300 AP2 domain 1 (GST-tagged); experiment: gcPBM binding intensity (ln(normalized median fluorescence intensity)); higher = stronger DNA binding
Outline: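 GST-tagged P. falciparum DNA-binding domains produced in E. coli were incubated for 1 h on an Agilent 4 × 180k array of primer-extended double-stranded 36-bp intergenic genomic probes with negative controls. Binding intensity is the highest Masliner-normalised natural-log median intensity across replicate spots of either probe orientation, with bound protein detected by Alexa488 anti-GST antibody at 488 nm.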

Sequence | gcPBM binding intensity (ln)
TAAATATTAACAATCGCACACATATTATTTTTCCAA [CACACA_site1626] | 9.32
GAATATATATTCATATGTACACAATTTATGTATTAT [XGTACX_site4719] | 9.36
AAGGTAAACAGACACACACACATACAAAAAAAAAAA [CACACA_site3768] | 10
ATATATATATTATATGCACACTTATATTTCATTAGA [CACACA_site5439] | 9.33
TATTTATAAATGAACACACACGCAATTTGAATCGAA [CACACA_site3371] | 9.72
TTTTTATATTTCAACATATCACAATTTTATATATCT [CACACA_negctrl_site178] | 9.24
AACACATACAGATATGCACACATTTTATTCCATTAT [CACACA_site5565] | 9.65
CTATATCATTTTCTAGCACACACATTGTTATTACCT [CACACA_site8204] | 9.84
GAATATAAACCTATTACACACATCTATATGTACATT [CACACA_site1914] | 9.67
TTTTTTATGCTAACTTCTTTTTCCTTATAAAATTGG [TGCATGCA_negctrl_site598] | 9.15
ATTTTTTTTATTATTACACACATATAACAAAAAAAT [CACACA_site6934] | 9.4
TATATAACATATAACACACATACTTAGTATTACATA [CACACA_site3099] | 9.51
ACAGTATCAATATGGATAAAAATGTCCATATGCCTG [TGCATGCA_negctrl_site482] | 9.2
TAAATATATATATACACACACACCAAAGCAATAGAT [CACACA_site2940] | 10.3
TTATATATACCTAAGACACACACATATATATATATA [CACACA_site8153] | 9.63
ATTAAATATGTCAAGTGTACAAAATGTAAAAAAAAA [XGTACX_site4119] | 9.25
GCCATTGTACCATCCACACACATATAAATATGTATA [CACACA_site7303] | 9.85
TATGAAGAAAAGAATTGTACGATGTTTATTTTGTAT [XGTACX_site8614] | 9.22
TGTTAATAGAAATACGTGCACACTAAAGGGAAAACA [CACACA_site1485] | 9.48
TTGTTATCTACCTGTAGTACATATATTATGTAATAT [XGTACX_site735] | 9.2
TTTTTATATTTTATAGTGCAAAAACTTACATAAAAT | 8.85
ATATAATGGACCATAGTGCATAAAAATAACAAAAAA [GTGCAC_site9558] | 9.41

Sequence | gcPBM binding intensity (ln)
TATTTTTTTTCTTTATTTATAACGCTCAATATATTC [GTGCAC_negctrl_site265] | 9.15
TGGAAATATATATATATATATACATATATATATAGC [XGTACX_negctrl_site107] | 9.02
TTTTAATATTTTAAGAGTACAGAAATATATAATATG [XGTACX_site4955] | 9.01
CATATAAATATATATACACACACACCGTAATACATA [CACACA_site9158] | 10.2
ATTTTATAACATTCATGTACACATTTCATTTATTTG [XGTACX_site3028] | 9.55
AGAGACACTTTTTATTGTACAAGAGGAGGTTACCTT [XGTACX_site8768] | 9.17
TACGAAAAAAAAAAAAAAAAAAAAAAACACAAAAAA [CACACA_negctrl_site1643] | 9.14
AATACCATAATCAATGCACACATAACAAAATATTAT [CACACA_site8873] | 9.72
TTATTTATTTTTATATGTACACAAAAAAAAAAAAAA [XGTACX_site1459] | 8.59
AATATATATAACGTTGGTACACAAAAATTATTAAAT [XGTACX_site8572] | 9.6
CCTCATCCACTATGCACACAAAAAAGAAATACACTA [CACACA_site3422] | 9.48
TTTTTTTTTTTTTTAACACACATATATATATTTTTC [CACACA_site1922] | 9.26
TTCTCAAATATAATAAAATTATAAAGTGACCTAACT [GTGCAC_negctrl_site493] | 9.02
TAATGGATTATACGTGCACACATATATACAAATAAA [CACACA_site8116] | 9.42
TTTTTTTTTAAATATACACACACATTTATACATATA [CACACA_site9122] | 9.64
TTTGGAATATAATATTGTACATATTATATATATATA [XGTACX_site3187] | 9.07
TTCTATTATGTGACTCAATTCTTCATGGGTGTATAA [TGCATGCA_negctrl_site140] | 9.23
AATGTATTTATTTTTTGTACATATCGTGTGTGTATT [XGTACX_site1009] | 9.85
AATTATTCTCTTTTCATTTGAACAATATGCTTAAAA [CACACA_negctrl_site995] | 9.09
AATATTTTTTAAATGTGTACATAGGTATAGCACACA [XGTACX_site8690] | 9.26
ACAAATATGAGAAATTGTACATATAATAAAATAGTA [XGTACX_site2573] | 9.31
ACACATTCGAAAAATTGTACATATATAACAGAATAT [XGTACX_site7106] | 9.53
